Reference: paper PMC4336329 (PLoS ONE, 2015)
Out of some 310,000 compounds screened, about 14,000 (4.5%) showed an effect of 50% or more. The effect is printed as a negative number. The list shows a part of the results.

These molecules were tested against human ether-à-go-go-related gene (hERG) potassium channel (human, UniProt Q12809) (assay: primary screen, population patch clamp on CHO cells stably expressing hERG).
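Further: peak tail current of the secondary pulse compared with the same well before compound.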

Chain of human ether-à-go-go-related gene (hERG) potassium channel (Q12809 whole entry, looked up): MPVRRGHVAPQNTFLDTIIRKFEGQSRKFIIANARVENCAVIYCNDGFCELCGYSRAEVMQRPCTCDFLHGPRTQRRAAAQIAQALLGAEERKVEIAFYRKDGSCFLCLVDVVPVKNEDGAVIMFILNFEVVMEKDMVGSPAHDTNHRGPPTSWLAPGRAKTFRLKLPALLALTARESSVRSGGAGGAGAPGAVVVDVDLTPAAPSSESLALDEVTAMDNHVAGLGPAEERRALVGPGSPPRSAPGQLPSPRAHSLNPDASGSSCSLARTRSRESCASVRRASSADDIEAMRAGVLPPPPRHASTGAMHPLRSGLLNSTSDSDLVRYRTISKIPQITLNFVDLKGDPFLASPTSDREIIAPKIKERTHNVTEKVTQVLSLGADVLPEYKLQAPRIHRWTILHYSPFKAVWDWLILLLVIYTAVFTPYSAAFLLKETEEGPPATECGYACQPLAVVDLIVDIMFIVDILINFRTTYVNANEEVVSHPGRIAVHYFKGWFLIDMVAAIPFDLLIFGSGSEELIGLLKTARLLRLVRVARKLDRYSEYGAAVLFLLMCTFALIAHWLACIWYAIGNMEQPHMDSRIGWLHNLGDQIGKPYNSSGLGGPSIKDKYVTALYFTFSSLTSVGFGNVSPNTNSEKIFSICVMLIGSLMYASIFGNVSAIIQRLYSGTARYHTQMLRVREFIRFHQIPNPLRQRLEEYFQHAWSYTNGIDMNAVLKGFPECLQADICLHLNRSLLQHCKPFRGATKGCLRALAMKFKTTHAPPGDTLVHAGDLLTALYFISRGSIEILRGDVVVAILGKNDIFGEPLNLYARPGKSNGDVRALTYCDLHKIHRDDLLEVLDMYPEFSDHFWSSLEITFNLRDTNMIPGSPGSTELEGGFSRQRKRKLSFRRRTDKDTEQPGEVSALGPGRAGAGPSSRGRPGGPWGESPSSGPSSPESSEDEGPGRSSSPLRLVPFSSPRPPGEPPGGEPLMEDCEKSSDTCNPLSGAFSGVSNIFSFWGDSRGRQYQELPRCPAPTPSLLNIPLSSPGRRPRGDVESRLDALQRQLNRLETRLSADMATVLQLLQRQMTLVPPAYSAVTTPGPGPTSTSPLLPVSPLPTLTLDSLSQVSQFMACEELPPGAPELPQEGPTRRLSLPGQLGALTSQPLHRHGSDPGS

| SMILES | hERG current change (%, negative = inhibition) at 10uM [%] |
| --- | --- |
| Cc1ccc(N(CC(=O)N/N=C/c2cccs2)S(C)(=O)=O)cc1Cl | -6.46 |
| COc1ccc(NC(=O)CN(C)S(=O)(=O)c2ccc3c(c2)c(=O)n(C)c(=O)n3C)cc1 | -9.53 |
| O=C(Nc1nncs1)C1c2ccccc2Oc2ccccc21 | 12.9 |
| Cc1cccn2c(=O)c(C=O)c(N3CCCCC3)nc12 | -6.39 |
| CCC(C)[C@H](NC(=O)C1CC(=O)N(c2ccc3c(c2)OCCO3)C1)C(=O)NC1CCCC1 (stereo partly shown) | 26.6 |
| C=CCOC(=O)C1=C(C)Nc2nnnn2C1c1ccc(OC)cc1OC (stereo not shown) | 5.97 |
| O=S(=O)(Nc1ccc2c(c1)OCCO2)c1c(F)cccc1F | 3.4 |
| CCOc1ccc(-c2cc(C)[n+](CCN3CCOCC3)c(-c3ccc(OCC)cc3)c2)cc1.[O-][Cl+3]([O-])([O-])[O-] | -41.4 |
| C=CCC1(CC=C)CCCN1C(=O)CC1C(=O)NCCN1Cc1cccc(OC)c1OC (stereo not shown) | 1.62 |
| CCn1ncc(Br)c1C(=O)N(C)C12CC3CC(CC(C3)C1)C2 | -9.56 |
| O=c1c(O[C@H]2O[C@@H](CO)[C@H](O)[C@@H](O)[C@@H]2O)c(-c2ccc(O)cc2)oc2cc(O)cc(O)c12 | 15.9 |
| CCn1c(COc2ccccc2C)nnc1SCC(=O)N1CCC(C)CC1 | -24.2 |
| Cc1ccc(CCNC(=O)CNS(=O)(=O)c2ccc3nc(C)sc3c2)cc1 | 2.53 |
| Cc1cc(C(=O)NNC(=O)c2cccc(Cl)c2)no1 | 5.13 |
| CCNC(=O)c1c(NC(=O)C2COc3ccccc3O2)sc2c1CCCC2 (stereo not shown) | 17.6 |
| Cc1cccnc1NC(=S)Nc1ccc(F)cc1F | 16 |
| CCCN(CCC)C(=O)Cn1c(=O)n(CCCCC(=O)NC2CCCC2)c(=O)c2ccccc21 | -12.8 |
| Oc1ccc(Cl)c(Cl)c1 | 16.7 |
| C/C(=N/NC(=O)c1ccc(C(C)(C)C)cc1)c1cccnc1 | -12.4 |
| O=C(O)c1sccc1OCc1ccccc1 | 13.4 |
| CCN(CC)C(=O)CSc1nc2sc3c(c2c(=O)n1CCCOC)CCC3 | -22.6 |
| CCOC(=O)c1nn(-c2ccccc2C)c(=O)c(C#N)c1C | 22.8 |
| Cc1cccc(NC(=O)CCN2C(=O)C3C4C=CC(C4)C3C2=O)c1 (stereo not shown) | 13.6 |
| Cc1sc2ncn(CC(=O)NCC(=O)N3CCN(c4ccc(F)cc4)CC3)c(=O)c2c1C | -12.5 |
| C=CCOc1ccc(/C(O)=C2/C(=O)C(=O)N(CCCn3ccnc3)C2c2cccs2)cc1 (stereo not shown) | 17 |
| COc1ccccc1NC(=O)C1CC(O)CN1C(=O)Oc1ccccc1 (stereo not shown) | 12.8 |
| Cc1cc(C)nc(SCc2c(F)cccc2Cl)n1 | 3.23 |
| CCN(CC)S(=O)(=O)c1cccc(C(=O)NC(C)C(c2cccs2)N2CCCC2)c1 (stereo not shown) | -8.94 |

| SMILES | hERG current change (%, negative = inhibition) at 10uM [%] |
| --- | --- |
| CCc1ccc(NC(=S)NNC(=O)c2ccccc2OC(F)F)cc1 | 10.6 |
| COc1cccc(C(=O)N2CCC(n3nccc3NC(=O)CCOc3ccccc3)CC2)c1 | -0.0371 |
| O=C(CCNC(=O)N1CC(=O)Nc2ccccc21)NCc1ccc(F)cc1 | 19.5 |
| CCOC(=O)C(NCc1ccco1)(NC(=O)c1ccccc1)C(F)(F)F (stereo not shown) | 9.86 |
| O=C(Cn1[nH]c(=O)c2ccccc2c1=O)NCC1COc2ccccc2O1 (stereo not shown) | -45 |
| CN(C)c1ccnc(NCc2ccccc2)c1C#N | -29.5 |
| Cl.O=C(CN1CCCCC1)c1ccc(F)cc1 | 1.94 |
| CN1C(=O)[C@H]2[C@@H](C3CC3)N3C(=O)CN(Cc4ccccc4)C(=O)[C@@]3(C)[C@H]2C1=O | -2.79 |
| O=S(=O)(NC1CCCC1)c1ccc(S(=O)(=O)N2CCc3ccccc32)cc1 | -8.79 |
| O=C(O)C(=O)O.OCCNCCOc1ccccc1-c1ccccc1 | -9.43 |
| CCCCCN(C(=O)CCC(=O)OC(C)C(=O)c1ccc(Cl)cc1)c1c(N)n(CCCC)c(=O)[nH]c1=O (stereo not shown) | -18.2 |
| Cn1c(=O)[nH]c(=O)c2c1nc(CN1CCN(c3ccc(F)cc3)CC1)n2CCc1ccccc1 | -27 |
| CN1C(=O)NC(NC(=O)c2ccco2)(C(F)(F)F)C1=O (stereo not shown) | -2.74 |
| O=C(c1ccc(-c2ccccc2Cl)s1)N1CCOCC1 | -14.4 |
| O=C(NNS(=O)(=O)c1ccc(Cl)cc1)c1cccc(S(=O)(=O)N2CCOCC2)c1 | 28 |
| CC(C)(C)c1ccc(OCC(=O)O/N=C(\N)c2ccncc2)cc1 | 4.08 |
| Cc1ccc(C)c(NS(=O)(=O)c2cc(C(=O)NCCSC3CCCCC3)ccc2C)c1 | -4.71 |
| O=C1[C@@H]2Cc3ccccc3CN2C(=O)N1c1cccc(F)c1 | -1.7 |
| O=C(c1cc2ccccc2oc1=O)N1CCCC1 | 19 |
| CCCNC(=O)c1ccc(Cn2cc(C(F)(F)F)ccc2=O)cc1 | -0.62 |
| Cc1cccc(C(=O)N2CCN(Cc3nc4sc5c(c4c(=O)[nH]3)CCCC5)CC2)c1 | -58.4 |
| C=CCNC(=S)N/N=C/c1ccc(-c2cccc([N+](=O)[O-])c2)o1 | 7.38 |
| Cc1ccc(C)c(S(=O)(=O)Nc2ccc(O)c(C(=O)O)c2)c1 | 12.2 |
| Cc1ccc(C(=O)Cn2nnc(-c3ccccc3-n3cnnn3)n2)cc1 | -0.628 |
| CC(NC(=O)C1CCCN(S(=O)(=O)N2CCOCC2)C1)c1ccccc1 (stereo not shown) | 15.8 |
| Cc1ccc(CNC(=O)COc2ccccc2-c2ccccc2)cc1 | -4.61 |
| CN(C(=O)CC1C(=O)NCCN1Cc1ccoc1)C1CCOCC1 (stereo not shown) | 18.8 |
